The assay concerns the target T1, human GDNF family receptor alpha-1 (GFRα1) joined to an Fc domain at its C-terminus (human, UniProt P56159-2 25-445).
T1 construct: Bought from R&D Systems; also called GFRa1-hFc; human GFRα1 Fc chimera (R&D Systems); not shown: human Fc domain joined to the C-terminus of GFRα1
T1 sequence (looked up): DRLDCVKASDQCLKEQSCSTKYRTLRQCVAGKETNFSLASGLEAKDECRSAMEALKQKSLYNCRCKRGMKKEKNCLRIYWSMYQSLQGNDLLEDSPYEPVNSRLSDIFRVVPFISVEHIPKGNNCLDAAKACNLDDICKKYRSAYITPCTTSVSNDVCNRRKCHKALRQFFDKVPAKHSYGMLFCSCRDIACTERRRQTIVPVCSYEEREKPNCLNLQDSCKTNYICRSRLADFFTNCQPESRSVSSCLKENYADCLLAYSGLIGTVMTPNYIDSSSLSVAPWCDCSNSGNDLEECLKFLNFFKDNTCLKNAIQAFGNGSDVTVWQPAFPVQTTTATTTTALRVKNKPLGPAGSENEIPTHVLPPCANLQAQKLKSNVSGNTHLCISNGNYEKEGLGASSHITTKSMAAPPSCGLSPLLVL
As to the kind of experiment: SPR; GFRα1-Fc chimera captured on CM5 chip by His-tag capture kit, fusion polypeptide flowed over; apparent KD (KD,app). The source says:
Surface Plasmon Resonance (SPR) was used to determine the binding affinities of the GDNF fusion polypeptides to GFRα1. The GDNF fusion polypeptides in this example include fusion polypeptides 2-4 as described in Example 1, as well as Fc (T366W)-GGG-hGDNF₁₁₇₋₂₁₁ (SEQ ID NO: 37) (fusion polypeptide 6) which has an Fc domain having the amino acid substitution T366W (relative to the sequence of human IgG1) joined to the N-terminus of the GDNF variant having amino acids 117-211 of SEQ ID NO: 1 through a GGG linker. The SPR assay was configured to capture human GFRα1, GFRα2, and GFRα3 Fc chimeras (R&D Systems) onto a CM5 chip surface using His-tag capture kit (GE Healthcare) to appropriate levels for kinetic analysis. GDNF fusion polypeptides were flowed over the immobilized GFRs to measure the kinetics of GDNF fusion polypeptide and GFR association and dissociation. The binding of various concentrations of GDNF fusion polypeptides was measured in HBS-EP buffer (GE Healthcare) at a flow rate of 30 μL/min. Binding curves were fitted using Scrubber2 software to obtain apparent binding affinities and kinetic constants.

B1: Fusion polypeptide 4 (Fc-GGG-hGDNF117-211) (Fc fusion)
chain: [no letters for human IgG1 Fc]GGGGCVLTAIHLNVTDLGLGYETKEELIFRYCSGSCDAAETTYDKILKNLSRNRRLVSDKVGQACCRPIAFDDDLSFLDDNLVYHILRKHSAKRCGCI
In the case of B1, the Kd is 3.8 nM.

B2: Fusion polypeptide 3 (Fc-GGG-hGDNF110-211) (Fc fusion)
chain: [no letters for human IgG1 Fc]GGGGQRGKNRGCVLTAIHLNVTDLGLGYETKEELIFRYCSGSCDAAETTYDKILKNLSRNRRLVSDKVGQACCRPIAFDDDLSFLDDNLVYHILRKHSAKRCGCI
In the case of B2, the Kd was determined as 0.87 nM.

B3: Fusion polypeptide 2 (Fc-GGG-hGDNF92-211) (Fc fusion)
chain: [no letters for human IgG1 Fc]GGGNRQAAAANPENSRGKGRRGQRGKNRGCVLTAIHLNVTDLGLGYETKEELIFRYCSGSCDAAETTYDKILKNLSRNRRLVSDKVGQACCRPIAFDDDLSFLDDNLVYHILRKHSAKRCGCI
Turning to B3, the Kd stood at 0.16 nM.

B4: Fusion polypeptide 6 (Fc (T366W)-GGG-hGDNF117-211) (Fc fusion)
chain: [no letters for human IgG1 Fc with changes]GGGGCVLTAIHLNVTDLGLGYETKEELIFRYCSGSCDAAETTYDKILKNLSRNRRLVSDKVGQACCRPIAFDDDLSFLDDNLVYHILRKHSAKRCGCI
Take B4: the Kd was 4.9 nM.

The record behind these values is US20260022150A1 (KEROS THERAPEUTICS, published 2026).
